# Measured values taken from PubChem BioAssay AID504332 (National Center for Advancing Translational Sciences (NCATS), 2011).
# Out of some 350,000 compounds screened, about 31,000 (8.9%) were called active. Inconclusive means that the source gave no clear call. Such entries were picked first, then a sample of the others. Calls come from the whole dose curve; as a rule, active = well fitted inhibition curve with a large enough effect; inconclusive = small, poorly fitted or top-dose-only effect; inactive = no such curve, though single readings can be large or run the other way. Where the call is inconclusive, the potency comes from a doubtful curve fit.
# Target: Histone-lysine N-methyltransferase EHMT2 (Homo sapiens) (UniProt Q96KQ7)
# Assay: qHTS Assay for Inhibitors of Histone Lysine Methyltransferase G9a; note: nearly all actives have a fitted effect of over 75% in size
# Settings: G9a H3K9 monomethylation, AlphaScreen, 2 h; activity, negative = inhibition: at 59 µM (top of the series) unless noted
# Outline: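 Methyltransferase reactions run at room temperature for 2 h (20 nM enzyme, 500 nM biotin-H3K9 peptide, 20 uM SAM) after a 15 min compound preincubation; product detected by AlphaScreen beads and anti-H3K9me1 antibody.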
# % is set by controls: 0 for no effect and ±100 for the full control effect; potency is the fitted concentration of half-maximal effect; tags give direction and shape of the fitted curve.
# UniProt Q96KQ7, sequence (Q96KQ7 whole entry, looked up): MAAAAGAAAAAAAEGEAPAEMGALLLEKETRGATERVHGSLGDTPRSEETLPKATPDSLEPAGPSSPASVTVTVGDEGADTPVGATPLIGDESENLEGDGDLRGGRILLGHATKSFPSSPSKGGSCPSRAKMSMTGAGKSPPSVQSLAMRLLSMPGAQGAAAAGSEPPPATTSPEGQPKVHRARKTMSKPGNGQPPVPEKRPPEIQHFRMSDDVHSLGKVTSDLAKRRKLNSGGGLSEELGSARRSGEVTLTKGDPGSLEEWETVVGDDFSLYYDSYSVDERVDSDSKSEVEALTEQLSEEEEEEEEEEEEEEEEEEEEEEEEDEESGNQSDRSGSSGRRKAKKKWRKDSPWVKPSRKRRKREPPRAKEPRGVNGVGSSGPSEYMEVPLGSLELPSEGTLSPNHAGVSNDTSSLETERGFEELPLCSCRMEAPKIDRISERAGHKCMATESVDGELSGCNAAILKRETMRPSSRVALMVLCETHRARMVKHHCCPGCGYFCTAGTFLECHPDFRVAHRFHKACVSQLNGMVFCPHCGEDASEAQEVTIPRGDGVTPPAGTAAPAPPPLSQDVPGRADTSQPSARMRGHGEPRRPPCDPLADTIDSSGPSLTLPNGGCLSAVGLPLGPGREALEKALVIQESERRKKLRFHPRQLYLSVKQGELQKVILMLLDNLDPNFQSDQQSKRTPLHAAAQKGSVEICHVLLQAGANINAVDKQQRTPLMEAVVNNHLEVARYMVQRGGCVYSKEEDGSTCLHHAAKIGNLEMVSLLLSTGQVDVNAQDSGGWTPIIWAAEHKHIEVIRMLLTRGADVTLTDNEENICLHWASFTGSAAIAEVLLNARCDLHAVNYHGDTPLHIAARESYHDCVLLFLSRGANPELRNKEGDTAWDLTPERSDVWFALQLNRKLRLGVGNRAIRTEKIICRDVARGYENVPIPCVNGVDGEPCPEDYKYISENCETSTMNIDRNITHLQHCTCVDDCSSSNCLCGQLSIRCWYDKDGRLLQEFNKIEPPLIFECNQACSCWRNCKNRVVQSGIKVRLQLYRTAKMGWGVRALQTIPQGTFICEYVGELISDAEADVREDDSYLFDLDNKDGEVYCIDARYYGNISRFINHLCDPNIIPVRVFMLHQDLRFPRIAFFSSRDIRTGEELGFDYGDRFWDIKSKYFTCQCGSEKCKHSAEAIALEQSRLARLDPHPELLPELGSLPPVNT
SMILES,Potency,"activity, negative = inhibition"
CC(C)(C)NC(=O)c1cccc2c1C(=O)c1ccccc1-2,"inconclusive: 79.4 µM [inhibitor, single point]",–
CCN1CCCC1CNc1ncnc2c1[nH]c1ccc(Cl)cc12 (centres undefined),active: 50.1 µM,–
CCS(=O)(=O)N1Cc2ccccc2CC1C(=O)Nc1nc(C)cs1 (centres undefined),inactive,–
CN(CC(=O)NCC1CCCCC1)CC(=O)Nc1ccc(F)cc1,"inconclusive: 4.47 µM [inhibitor, single point]",–
COC(=O)c1ccc(-c2noc(CN(Cc3nccn3C)C(C)C)n2)cc1,inactive,–
O=C(CSc1nc2ccccc2[nH]1)c1ccc(Cl)s1,"inconclusive: 2.82 µM [inhibitor, partial curve, poor fit]",–
COCCn1c(C)cc(C(=O)CSc2nc3nc(C)cc(C)n3n2)c1C,"inconclusive: 39.8 µM [inhibitor, single point]",–
Cc1nn2c(=O)cc(COc3ccc(/C=C(\C#N)C(=O)Nc4ccccc4)cc3Cl)nc2s1,inactive,–
Cc1ccc(-c2nc(CS(=O)(=O)CC(=O)N3CCCCCC3)c(C)o2)cc1,"inconclusive: 0.708 µM [inhibitor, partial curve, poor fit]",–
COc1ccc(C2=NN(C(=O)CCCC(=O)O)C(c3cn(-c4ccccc4)nc3-c3ccccc3)C2)cc1 (centres undefined),"inconclusive: 44.7 µM [inhibitor, partial curve, poor fit]",–
O=C(/C=C/c1ccccc1)Nc1cc(C(=O)O)cc(C(=O)O)c1,"inconclusive: 20 µM [inhibitor, partial curve, poor fit]",–
COc1ccc(/C=C/C(=O)c2cc(Br)ccc2OC(=O)c2ccco2)cc1OC,"inconclusive: 79.4 µM [inhibitor, partial curve, poor fit]",–
CCN(CC)c1ccc(NC(=O)CCS(=O)(=O)c2ccc3c(c2)oc(=O)n3C)c(C)c1,"inconclusive: 7.94 µM [inhibitor, partial curve, poor fit]",–
COc1ccc(/C=N/NC(=O)CN2CCSCC2)cc1C,"inconclusive: 12.6 µM [inhibitor, partial curve, poor fit]",–
COc1ccc(-c2onc(C)c2C)cc1S(=O)(=O)Nc1cc(Cl)ccc1C,inactive,–
COc1ccccc1NS(=O)(=O)c1cc(N)ccc1N1CCCCC1,active: 3.98 µM,–
CCC(=O)Nc1ccc(CC)cc1-c1nc2ccccc2n(CC(=O)Nc2ccccc2C)c1=O,inactive,–
O=C(CSc1nc2ccccc2nc1Cc1ccccc1F)Nc1cccc(C(F)(F)F)c1,inactive,–
COc1cc(CNCc2ccccc2C(F)(F)F)cc(OC)c1,active: 6.31 µM,–
CCOc1ccc(-c2cc(C(=O)NCCCOC)c3c(-c4ccc(CC)cc4)[nH]nc3n2)cc1,inactive,–
CC(C)P(=O)(Cc1cccc(C#N)c1)C(C)C,"inconclusive: 89.1 µM [inhibitor, single point]",–
COc1cccc(/C=N/n2c(-c3cc(C)[nH]n3)n[nH]c2=S)c1,active: 2.51 µM,–

SMILES,Potency,"activity, negative = inhibition"
COc1cc([N+](=O)[O-])ccc1NC(=O)CSc1n[nH]c(C(C)C)n1,"inconclusive: 39.8 µM [inhibitor, partial curve, poor fit]",–
CCOc1ccc(/C=N/NS(=O)(=O)c2ccc(C)cc2)cc1OC,"inconclusive: 22.4 µM [inhibitor, single point]",–
Cc1cc(NS(=O)(=O)c2ccc(NC(=O)c3cnc4sccn4c3=O)cc2)nc(C)n1,"inconclusive: 56.2 µM [inhibitor, single point]",–
O=C(COC(=O)CC(c1ccccc1)c1ccccc1)Nc1c(F)cccc1F,"inconclusive: 1.41 µM [inhibitor, partial curve, poor fit]",–
CN(C)c1ccc(/C=C(\C#N)C(=O)c2ccccc2)cc1,inactive,–
Cc1ccc(NC(=O)CSc2ccc3nnc(-c4cccnc4)n3n2)cc1,inactive,–
CCC(Oc1ccc2c(c1)C(=O)CC(C)(C)O2)C(=O)NCCN1CCCCCC1 (centres undefined),active: 12.6 µM,–
O=c1c2ccccc2n(Cc2c(F)cccc2Cl)c(=O)n1Cc1ccccc1,inactive,–
Cc1ccc(Cn2c(CNC(=O)Cc3cccc([N+](=O)[O-])c3)nc3cccnc32)cc1,inactive,–
S=C(Nc1ccc(Oc2ccccc2)cc1)N1CCN(c2ccccn2)CC1,–,inconclusive: -64.9% [inhibitor]
COc1ccccc1C(=O)NC(=S)Nc1ccccc1N1CCCC1,"inconclusive: 25.1 µM [inhibitor, partial curve, poor fit]",–
COc1ccccc1-c1cc(C(=O)Nc2sc3c(c2C#N)CCC(C)C3)c2ccccc2n1 (centres undefined),–,inactive: 14% [at 2.33 µM]
CCCCN(Cc1cc2cc(OC)ccc2[nH]c1=O)C(=O)c1ccco1,"inconclusive: 89.1 µM [inhibitor, single point]",–
CS(=O)(=O)c1ccccc1-c1nnc(NC(=O)Cc2ccccc2)o1,"inconclusive: 79.4 µM [inhibitor, single point]",–
COc1cc(-c2nc3oc4ccccc4c(=O)c3c(=O)n2Cc2ccco2)cc(OC)c1OC,"inconclusive: 50.1 µM [inhibitor, partial curve, poor fit]",–
Cc1ccc(C)c(S(=O)(=O)N2CCN(C(=O)C3CCN(c4ncnc5sc(C)c(C)c45)CC3)CC2)c1,"inconclusive: 15.8 µM [inhibitor, partial curve]",–
CCc1ccc(NC(=O)NCC2CCN(c3ccc(OC)cc3)C2)cc1 (centres undefined),"inconclusive: 0.891 µM [inhibitor, partial curve, poor fit]",–
Cc1cc(C)cc(OC(C)C(=O)Nc2ccc(S(=O)(=O)Nc3cc(C)nc(C)n3)cc2)c1 (centres undefined),"inconclusive: 89.1 µM [inhibitor, single point]",–
O=C(NCc1ccco1)c1nn2c(C(F)(F)F)cc(-c3cccs3)nc2c1Br,active: 50.1 µM,–
CCN(CC)CCNC(=O)C12CC3CC(CC(C3)C1)C2,"inconclusive: 89.1 µM [inhibitor, single point]",–
O=C(c1ccc(Cl)c(S(=O)(=O)N2CCOCC2)c1)N1CCCCC1,inactive,–
O=C(CCN1C(=O)c2cccc([N+](=O)[O-])c2C1=O)Nc1nccs1,active: 39.8 µM,–
